{
  "source": "PubChem BioAssay (NCATS)",
  "note": "The inconclusive results got no clear call from the source; some entries with a clear call stand among them for comparison. Potencies of inconclusive entries are left out as doubtful fits. Active and inactive are the calls of the source. Calls follow the shape of the dose curve; as a rule, active = well fitted curve in the direction sought with a large enough effect; inconclusive = small, poorly fitted or top-dose-only effect, or another doubt; inactive = no such curve, though single readings can be large; an effect the other way counts as inactive or inconclusive. Potency is read from the fitted curve at half-maximal effect; tags tell the direction and shape of the fitted curve.",
  "data": [
    {"target": "Aldehyde dehydrogenase, mitochondrial (Homo sapiens) (UniProt P05091)", "experiment": "qHTS for Inhibitors of the Aldehyde Dehydrogenase Family (ALDH2) Primary screen (AID 2061308); also: nearly all actives have a fitted effect of over 55% in size", "details": "ALDH2 enzyme inhibition qHTS, 1536-well; series mostly up to 56 µM", "values": [
      {"smiles": "COC(=O)C1C(CC(C)=O)C=CC(O)C12Oc1cc(C)cc(O)c1C2=O", "note": "(stereo not drawn)", "Potency": "inconclusive [inhibitor, partial curve]"},
      {"smiles": "C#Cc1cccc(Nc2ncnc3cc(OC)c(OCCCCCCC(=O)NO)cc23)c1", "Potency": "inactive"},
      {"smiles": "Cn1c(CNc2ccc(C(=N)N)cc2)nc2cc(C(=O)N(CCC(=O)O)c3ccccn3)ccc21", "Potency": "inactive"},
      {"smiles": "C=CC(=O)N1CCC[C@@H](n2nc(-c3cccc(C(=O)Nc4ccc(C(C)C)c(C)c4)c3)c3c(N)ncnc32)C1", "Potency": "inconclusive [inhibitor, partial curve, poor fit]"},
      {"smiles": "CNc1nccc(-c2cccnc2Oc2cc(C(=O)Nc3cccc(C(F)(F)F)c3)ccc2C)n1", "Potency": "inactive"},
      {"smiles": "CNC(=O)c1cc(Oc2ccc(NC(=O)Nc3ccc(Cl)c(C(F)(F)F)c3)cc2)ccn1", "Potency": "inactive"},
      {"smiles": "Nc1ccccc1NC(=O)c1ccc(CNc2nccc(-c3cccnc3)n2)cc1", "Potency": "inconclusive [inhibitor, full curve, poor fit]"},
      {"smiles": "C[C@@H]1CCN(C(=O)N2CCCC2)C[C@@H]1N(C)c1ncnc2[nH]ccc12", "Potency": "inactive"},
      {"smiles": "Cc1c2cc(c(C(=O)O)c1C)OC1OC(C(O)C(O)C1O)C(O)C(O)C1OC(O2)C(O)C(O)C1O", "note": "(stereo not drawn)", "Potency": "inconclusive [inhibitor, single point]"},
      {"smiles": "Cc1[nH]nc2ccc(-c3cncc(OC[C@@H](N)Cc4ccccc4)c3)cc12", "Potency": "inconclusive [inhibitor, single point]"},
      {"smiles": "Cc1cn(CCN2CCN(c3ccccc3-c3cc(C#N)cc(C(=O)NCCCN4CCCC4)c3)CC2)c2ccccc12", "Potency": "inactive"},
      {"smiles": "Cc1coc2c1C(=O)C(=O)c1c-2ccc2c1CCCC2(C)C", "Potency": "inconclusive [inhibitor, single point]"},
      {"smiles": "CCCN1CCN(c2ccc(C(=O)NC3(C(=O)NCC#N)CCCCC3)cc2)CC1", "Potency": "inactive"},
      {"smiles": "COC(C)(C)CCn1nc(Nc2c(C)cccc2C)c2cnc(Nc3ccc(OCCN4CCCC4)c(F)c3)nc21", "Potency": "inactive"},
      {"smiles": "CN(C[C@@H]1COCCO1)S(=O)(=O)Nc1ccc2ccc3ncc(-c4cnn(C)c4)cc3c(=O)c2c1", "Potency": "inactive"},
      {"smiles": "Cc1cc(Nc2nc(N[C@@H](C)c3ccc(F)cc3)c(C#N)cc2F)n[nH]1", "Potency": "inconclusive [inhibitor, partial curve, poor fit]"},
      {"smiles": "Nc1ccn(C2CO[C@H](CO)O2)c(=O)n1", "note": "(stereo partly drawn)", "Potency": "inactive"},
      {"smiles": "COC(=O)c1ccc2c(C(=Nc3ccc(N(C)C(=O)CN4CCN(C)CC4)cc3)c3ccccc3)c(O)[nH]c2c1", "Potency": "inactive"},
      {"smiles": "COCCNCCCn1c(C(=O)CF)c(-c2ccc(C)cc2)c2c(N)ncnc21", "Potency": "inactive"},
      {"smiles": "Nc1nccn2c(C3CCC(C(=O)O)CC3)nc(-c3cc4cccc(Cl)c4[nH]3)c12", "note": "(stereo not drawn)", "Potency": "inconclusive [inhibitor, single point]"},
      {"smiles": "Oc1cc(-c2nc(-c3ccccc3)[nH]c2-c2ccncc2)ccc1Cl", "Potency": "inconclusive [inhibitor, partial curve, poor fit]"},
      {"smiles": "COc1cc2ncnc(Nc3cc(Br)c(O)c(Br)c3)c2cc1OC", "Potency": "inconclusive [inhibitor, partial curve, poor fit]"},
      {"smiles": "COc1ccc(-c2cc(C(O)C3CCCCN3)c3ccccc3n2)cc1", "note": "(stereo not drawn)", "Potency": "inconclusive [inhibitor, partial curve, poor fit]"},
      {"smiles": "CN(C)c1ccc(Nc2nc(N)n(C(=O)c3c(F)cccc3F)n2)cc1", "Potency": "inconclusive [inhibitor, partial curve]"},
      {"smiles": "Clc1ccc(C(Cn2ccnc2)OCc2c(Cl)cccc2Cl)c(Cl)c1", "note": "(stereo not drawn)", "Potency": "inconclusive [inhibitor, partial curve, poor fit]"},
      {"smiles": "Cc1nc(Nc2n[nH]c3c2CN(C(=O)N[C@H](CN(C)C)c2ccccc2)C3(C)C)c2sccc2n1", "Potency": "inactive"},
      {"smiles": "Cn1ncc(Cl)c1-c1cc(C(=O)NC(CN)Cc2ccc(F)c(F)c2)oc1Cl", "note": "(stereo not drawn)", "Potency": "inactive"},
      {"smiles": "O[C@@H](COc1cccc2ncccc12)CN1CCN(C2c3ccccc3[C@@H]3[C@H](c4ccccc42)C3(F)F)CC1", "note": "(stereo partly drawn)", "Potency": "inconclusive [inhibitor, single point]"}
    ]},
    {"target": "Retinaldehyde dehydrogenase 3 (Homo sapiens) (UniProt P47895)", "experiment": "qHTS for Inhibitors of the Aldehyde Dehydrogenase Family (ALDH1A3) Confirmatory screens (AID 2061311); also: nearly all actives have a fitted effect of over 60% in size", "details": "ALDH inhibition qHTS; series mostly up to 46 µM", "values": [
      {"smiles": "Cc1cc(N)c2ccccc2[n+]1CCCCCCCCCC[n+]1c(C)cc(N)c2ccccc21", "Potency": "inactive"},
      {"smiles": "O=C(Nc1ccccc1Cl)c1cnc2ccc(C3CCNCC3)cn12", "Potency": "inactive"},
      {"smiles": "CNC(=O)c1cc(Oc2ccc3nc(N[C@@H]4CCCC[C@H]4O)sc3c2)ccn1", "Potency": "inconclusive [inhibitor, partial curve]"},
      {"smiles": "CCOC(=O)c1cnc2c(cnn2CC)c1NN=C(C)C", "Potency": "inconclusive [inhibitor, partial curve, poor fit]"},
      {"smiles": "COc1ccc(CCC(=O)c2c(O)cc(O[C@@H]3O[C@H](CO)[C@@H](O)[C@H](O)[C@H]3O[C@@H]3O[C@@H](C)[C@H](O)[C@@H](O)[C@H]3O)cc2O)cc1O", "Potency": "inconclusive [inhibitor, partial curve]"}
    ]}
  ]
}
